About 1,200 (2.5%) of roughly 48,000 compounds were called active. About 2% were inconclusive and are not listed.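 How the source made its calls: active means activation of at least 60% and not above a set upper limit (about 1 call in 100 departs from these limits); inconclusive means activation of 40% to 60%, or above that upper limit; inactive means activation under 40%.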 This is one part of the list.

This note sets out measurements from PubChem BioAssay AID1346428 (National Center for Advancing Translational Sciences (NCATS), 2018).

UniProt O75388, sequence (O75388 whole entry, looked up): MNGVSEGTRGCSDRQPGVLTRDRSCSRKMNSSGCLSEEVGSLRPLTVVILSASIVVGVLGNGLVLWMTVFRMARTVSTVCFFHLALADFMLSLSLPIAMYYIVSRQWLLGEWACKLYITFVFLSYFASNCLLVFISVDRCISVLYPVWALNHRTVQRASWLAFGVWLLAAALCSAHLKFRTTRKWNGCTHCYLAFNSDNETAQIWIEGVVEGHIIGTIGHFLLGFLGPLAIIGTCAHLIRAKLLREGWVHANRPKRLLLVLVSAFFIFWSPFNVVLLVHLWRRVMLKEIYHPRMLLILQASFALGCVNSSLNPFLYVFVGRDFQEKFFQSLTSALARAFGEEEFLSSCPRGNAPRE

The target in the assay is Probable G-protein coupled receptor 32 (Homo sapiens) (UniProt O75388). Put plainly: qHTS for Agonists of Human Resolvin D1 Receptor DRV1. Further: 0% is about no effect. The following applies: CHO-K1 GPR32 beta-arrestin PathHunter luminescence, 90 min; at 76.9 µM; active compounds read high; zero percent set by DMSO-only wells. Summed up:
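Luminescent readout of beta-Gal complementation quantifies ligand-induced beta-arrestin association with GPR32 in CHO-K1 cells; 90 min compound incubation at 37 °C, detection 1 h at room temperature.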
In general terms: qHTS replaces the single test concentration by a dilution series.
Consider `COc1ccccc1N1CCN(C(=O)c2cc(-c3ccc(F)cc3)on2)CC1`, for which the activation was inactive: -4.03%. In the case of `CCN(c1cccc(C)c1)S(=O)(=O)c1nnc(NC(=O)c2ccccc2Cl)s1`, the activation is inactive: 7.62%. The value for `Cc1ccc2nc(-c3ccc(NC(=O)COc4ccccc4)cc3)sc2c1` was inactive: -13.5%. The value for `CC(=O)c1ccc(N2C(=O)N(CC(=O)c3ccc(C)cc3)c3ccccc3S2(=O)=O)cc1` was inactive: -2.1%. Turning to `CCn1c(C(=O)N2CCCC(C(=O)N3CCN(c4cc(C)ccc4C)CC3)C2)cc2sccc21` (centres undefined), the activation is inactive: -3.65%. On to `CCN(CC)c1ccc(NC(=O)c2sc3nc4c(cc3c2N)CN(C)CC4)cc1`, for which the activation was inactive: -17.8%.

Consider `Cc1ccc(CCNC(=O)CCS(=O)(=O)c2cc3c(cc2C)NC(=O)CO3)cc1`, for which the activation was inactive: -11.2%. Then `Cc1nncn1-c1ccc(C(=O)Nc2cc(F)ccc2F)cc1`, with inactive: 7.14%; and `O=C(Nc1ccc2nc(SCC(=O)N3CCc4ccccc43)sc2c1)c1cccc(Cl)c1`, with inactive: -5.8%.

`COc1cc(OC)c(OC)cc1CNc1sc2c(c1C(=O)Nc1ccccc1OC)CCC2`: the activation is inactive: -8.36%. Regarding `CN(C(=O)CCS(=O)(=O)c1cc2c(cc1Cl)NC(=O)CO2)C1CCCCC1`, the activation is inactive: -3.7%. The value for `CCn1c(=N)c(C(=O)NC2CCCCC2)cc2c(=O)n3cc(C)ccc3nc21` was inactive: 5.32%. The value for `COc1ccc(NC(=O)CSc2nc3nc(C)c(Cc4ccccc4Cl)c(C)n3n2)cc1OC` was inactive: -20.3%. The value for `COc1ccc(C)cc1NS(=O)(=O)c1cc2c3c(c1)CC(=O)N3CCC2` was inactive: -13.2%; that for `COc1cc2c(cc1OC)C(COc1cc(C)cc(C)c1)N(C(=O)COc1ccccc1)CC2` (centres undefined) was inactive: -2.21%; that for `COc1ccc(Cl)cc1NC(=O)CCCN1C(=O)C(c2ccccc2)Oc2cccnc21` (centres undefined) was inactive: -11.1%. Consider `COc1ccc(NC(=O)c2cc3c(=O)n(Cc4cccnc4)ccc3nc2C)cc1OC`, for which the activation is inactive: 13.8%.

Take `Cc1ccccc1CCNC(=O)c1cc2cc(S(=O)(=O)N3CCCCC3)ccc2n1C`: the activation is inactive: -17.3%. The value for `COc1ccc(-n2c(=O)c3ccccc3n(CC(=O)NCCc3ccc(OC)c(OC)c3)c2=O)cc1` was inactive: 3.87%; that for `CCOCCCN(Cc1ccco1)S(=O)(=O)c1cc2c(cc1C)NC(=O)CO2` was inactive: -11.7%; that for `COc1ccc(-n2ncc(C(=O)Nc3cccc(C(F)(F)F)c3)c2C2CCN(C(=O)OC(C)(C)C)CC2)cc1` was inactive: -9.62%. The value for `COc1ccc(N2Cc3cccc(C(=O)Nc4ccc(F)cc4)c3C2=O)cc1` was inactive: -2.7%; that for `Cc1ccc(C2=Nc3ccccc3N(CC(=O)NCc3ccccc3Cl)C(=O)C2)cc1C` was inactive: -9.52%; that for `O=C(Nc1c(C(=O)N2CCN(c3ccccc3)CC2)oc2ccccc12)c1ccco1` was inactive: -9.87%. Then `CCN1CCCC1CN` (centres undefined), with inactive: 0.193%; and `Cc1ccccc1CN1c2ccccc2-c2nc(SCC(=O)NCc3ccccc3)ncc2S1(=O)=O`, with inactive: -2.52%. As to `Cc1c(C(=O)NCCc2ccc(Cl)cc2)sc2nc3n(c(=O)c12)CCCC3`, the activation was inactive: -15.2%. Turning to `CC(C)C(=O)NCC(c1ccc2c(c1)OCO2)N1CCN(c2ccccc2)CC1` (centres undefined), the activation is inactive: -12.2%.

Regarding `CCN1CCN(CCCNC(=O)c2ccc3c(c2)sc2nc(-c4ccc(OC)cc4)cn23)CC1`, the activation is inactive: -5.99%. In the case of `CCNc1c(NC(=O)c2cc(OCC)c(OCC)c(OCC)c2)c(=O)oc2ccccc12`, the activation is inactive: 1.02%.

As to `CCOC(=O)c1c(-c2ccc(OC)cc2)oc2ccc(OCc3ccc(C(=O)OC)cc3)cc12`, the activation is inactive: -2.97%.

`CC(NC(=O)C(=O)Nc1c2c(nn1-c1ccc(F)cc1)CSC2)c1ccccc1` (centres undefined): the activation was inactive: -26.4%. As to `COc1cccc(CNC(=O)CCn2cccn2)c1`, the activation is inactive: 8.98%. Take `CCOC(=O)c1c(NC(=O)COc2ccc(F)cc2)sc2c1CCC(C)C2` (centres undefined): the activation was inactive: 24.1%. Consider `O=C(NCCCN1CCN(c2ccccc2F)CC1)c1nnc(Cc2ccc(Cl)cc2Cl)o1`, for which the activation is inactive: -9.76%. The value for `CCCCC/C=C\C/C=C\CCCCCCCC(=O)NC(C)c1ccccc1` (centres undefined) was inactive: 12.1%.

`CCC(=O)N1CCc2cc(Br)cc(S(=O)(=O)NCCc3ccccc3)c21`: the activation is inactive: 34%. Then `CCCCN(C)CCNC(=O)c1nn(-c2ccc(OC)cc2)c(=O)c2c1c1ccccc1n2C`, with inactive: -9.73%; and `CCOC(=O)c1[nH]cnc1C(=O)Nc1ccc(F)cc1`, with inactive: -77.4%; and `CC(C)(C)C(=O)Nc1cccc(C(=O)OCc2cc(=O)n3nc(C4CCCCC4)sc3n2)c1`, with inactive: -5.87%. Then `O=C(CSc1nc2ccccc2n1Cc1ccccc1Cl)NCc1ccccc1`, with inactive: -33.3%; and `N#C/C(=C\c1ccc(-c2cc(Cl)ccc2Cl)o1)C(=O)Nc1ccccc1C(=O)O`, with active: 111%. Turning to `COc1cccc(CNC(=O)CCNS(=O)(=O)c2ccc3c(c2)oc(=O)n3C)c1`, the activation was inactive: 4.33%. Regarding `Cc1cc(C)c(Cn2c(C(O)c3ccccc3)nc3ccccc32)c(C)c1` (centres undefined), the activation was inactive: -6.57%. For the compound `Cc1ccc(OCc2nc3ccccc3n2Cc2ccccc2Cl)cc1`, the activation is inactive: -23.1%. The value for `COc1ccc(Br)cc1CNC(=O)C1CCCCN1S(=O)(=O)c1ccc(F)cc1` (centres undefined) was inactive: -26.3%. Turning to `CCCNC(=O)CCc1c(C)nc2nc(-c3cc(OC)cc(OC)c3)nn2c1C`, the activation was inactive: 3.64%. The value for `COc1cccc(CNC(=O)CCC(=O)N2Cc3cccc(OC)c3Oc3ncccc32)c1OC` was inactive: -3.19%.

With `CCn1cc(C(=O)NCc2ccccc2)c(=O)c2cc(S(=O)(=O)N3CCCCCC3)ccc21`, the activation is inactive: -0.855%. With `COc1ccc(NC(=O)c2ccc(COc3ccccc3OC)o2)cc1OC`, the activation was inactive: 16.6%. As for `Cc1cccc(-n2nnnc2S(C)(=O)=O)c1`, the activation is inactive: 9.92%. The value for `O=C(Cc1ccccc1)Nc1c(C(=O)Nc2ccccc2F)oc2ccccc12` was inactive: 15.6%; that for `CCc1ccc(-c2[nH]c3c(c2-c2sc(C)c(C(=O)OC)c2O)c(=O)n(C)c(=O)n3C)cc1` was inactive: -6.37%. `COc1cccc2sc(N(Cc3cccnc3)C(=O)C3COc4ccccc4O3)nc12` (centres undefined): the activation was inactive: -18.2%. The value for `COc1ccc(N(C)C(=O)CCS(=O)(=O)c2cccc3nsnc23)cc1` was inactive: -0.449%. Then `O=C(Cn1ncc2c(=O)oc3ccccc3c21)NCc1ccc(Cl)cc1`, with inactive: 10.9%. The value for `CC(=O)N1CCCc2cc(S(=O)(=O)N(C)CC(=O)Nc3ccc(Cl)cc3C)ccc21` was inactive: 27%; that for `N=C(N)c1ccc2cc(OC(=O)c3ccc(N=C(N)N)cc3)ccc2c1` was inactive: -31.6%. For the compound `Cc1c(NC(=O)c2ccccc2F)cccc1-c1nc2cccnc2s1`, the activation is inactive: -16.6%. As to `Cc1ccc(Nc2nc3ccccc3c3nncn23)cc1C`, the activation was inactive: 43.8%.

As to `CCCN(CCC)C(=O)C1CCN(c2ncnc3c2nc2n3CCCCC2)CC1`, the activation is inactive: -2.65%. Then `COc1ccc(CNC(=O)C(C(C)C)N2Cc3ccccc3C2=O)cc1` (centres undefined), with inactive: -14.8%; and `COc1ccc2c(c1)CCc1c(C(=O)Nc3c(C)nn(Cc4ccc(C)cc4)c3C)noc1-2`, with inactive: -0.748%; and `Cc1ccc(C)c(NC(=O)c2cc(S(=O)(=O)NCCC3=CCCCC3)ccc2F)c1`, with inactive: -15.5%. As for `O=c1c(S(=O)(=O)c2ccccc2)cn(Cc2ccc(F)cc2)c2cc(N3CCCCC3)c(F)cc12`, the activation is inactive: -8.38%. With `CCOc1ccc(CCNC(=O)CN(c2ccc(C)cc2)S(=O)(=O)N(C)C)cc1OCC`, the activation is inactive: 3.48%. Then `CC1Cn2cc(C(=O)Nc3cccc(C(F)(F)F)c3)c(=O)c3c(Cl)ccc(c32)O1` (centres undefined), with inactive: 5.11%; and `Cc1ccc(-c2onc(C)c2C)cc1S(=O)(=O)NC1CCCCC1`, with inactive: -19.6%; and `COC(=O)c1nnn(CC(=O)Nc2ccc(Br)c(C)c2)c1N`, with inactive: 19.1%. The value for `Cc1ccc(-n2c(=O)c3c(c4cc(C)ccc4n3C)n(CC(=O)Nc3cc(C)cc(C)c3)c2=O)cc1` was inactive: -1.55%. As to `C[C@H]1C[C@@H]2[C@H]([C@@H](O)C[C@@]3(C)[C@H]2CC[C@]3(O)C(=O)CO)[C@@]2(C)C=CC(=O)C=C12`, the activation was inactive: -6.15%. Consider `CCOC(=O)c1ccc(NC(=O)Cn2cc(C(=O)c3ccc(Cl)cc3)c(=O)c3ccc(C)nc32)cc1`, for which the activation was inactive: 7.09%. The value for `COc1cc(OC)cc(-c2nc3nc(C)c(CCC(=O)Nc4cc(F)ccc4F)c(C)n3n2)c1` was inactive: -1.17%. Take `COc1ccc(N2CC(NC(=O)c3ccc(S(=O)(=O)N4CCCCC4)cc3)CC2=O)cc1OC` (centres undefined): the activation was inactive: 18.5%. Then `Cc1cccc(NC(=O)c2cc(S(=O)(=O)N3CCC4(CC3)OCCO4)ccc2F)c1`, with inactive: -21.2%. `CCSc1ncc(Cl)c(C(=O)Nc2c(C(=O)c3ccccc3)oc3ccccc23)n1`: the activation is inactive: 1.76%. Take `Cc1nc2cc(-c3ccccc3)nn2c(C)c1CCC(=O)N1CCN(c2ccccc2)CC1`: the activation is inactive: 0.462%. The value for `Cc1ccccc1CN1CCN(CC(=O)NCc2ccccc2Cl)C1=O` was inactive: -19.1%; that for `COc1ccc2oc(-c3ccc(C)c(NC(=O)Cc4ccc(Cl)cc4)c3)nc2c1` was inactive: 0.567%; that for `Cn1cnc2c(=O)oc3ccc(S(=O)(=O)N4CCN(c5cccc(Cl)c5)CC4)cc3c21` was inactive: 4.7%. As for `Cc1cccc(-c2nc(Cn3c(SCc4cccc(C(F)(F)F)c4)nc4ccncc43)c(C)o2)c1`, the activation is inactive: -12.5%. Take `Cc1c(NC(=O)c2cc(=O)c3cc(Cl)ccc3o2)c(=O)n(-c2ccccc2)n1C`: the activation was inactive: 0.516%.

As to `Fc1ccc2c(c1)NC(c1ccncc1)=NC(c1cccs1)=N2`, the activation was inactive: -0.659%. The value for `Cc1nc2c(C(=O)NC(C)c3ccccc3)cnn2c(C)c1Cc1ccccc1` (centres undefined) was inactive: -30.5%.
